The other results are listed elsewhere or left out. The full chains were built here from the parent and the listed change. Values near 0.05 are background.
B1: TEV protease; numbered along this chain (parent)
chain: MGESLFKGPRDYNPISSSICHLTNESDGHTTSLYGIGFGPFIITNKHLFRRNNGTLVVQSLHGVFKVKDTTTLQQHLVDGRDMIIIRMPKDFPPFPQKLKFREPQREERICLVTTNFQTKSMSSMVSDTSCTFPSGDGIFWKHWIQTKDGQCGSPLVSTRDGFIVGIHSASNFTNTNNYFTSVPKNFMELLTNQEAQQWVSGWRLNADSVLWGGHKVFMVKPEEPFQPVKEATQL

Variants of: B1
Assay: raw area under fraction-flipped curve 0-4 h after induction (AUC4h, not background-subtracted), DNA-recorder readout of cleavage of the substrate (dimensionless); higher = more cleavage of the substrate by the protease variant
Details: temperature: 34 °C; time window: 0-4 h after rhamnose induction
Procedure: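 In vivo DNA recorder in E. coli TOP10(DE3) ΔrhaA at 34 °C. Each TEVp single-site mutant (parent TEVp 0) is paired with a single-site variant of the 7-mer TEVs (canonical ENLYFQ|S). The substrate sits between flexible linkers in a Bxb1-sfGFP-TEVs-SsrA fusion, so cleavage stabilises Bxb1 and speeds flipping of a recombination array, read by NGS. The value is the raw area under the fraction-flipped curve over 0-4 h after rhamnose induction (AUC4h), with ≥20 reads per time point. It is not background-subtracted; inactive controls average about 0.047.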
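Further: Bxb1 expression induced with 0.2% (w/v) L-rhamnose at OD600 near 0.5, cultures sampled hourly, flipped fraction per protease–substrate barcode pair counted by paired-end Illumina sequencing.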

Variant | area with substrate ENLAFQS | area with substrate ENLCFQS | area with substrate ENLDFQS | area with substrate ENLEFQS | area with substrate ENLFFQS | area with substrate ENLHFQS | area with substrate ENLKFQS | area with substrate ENLLFQS | area with substrate ENLMFQS | area with substrate ENLNFQS | area with substrate ENLPFQS | area with substrate ENLRFQS | area with substrate ENLSFQS | area with substrate ENLTFQS | area with substrate ENLVFQS | area with substrate ENLIFQS | area with substrate ENLQFQS | area with substrate ENLWFQS | area with substrate ENLGFQS
G150E | 0.117 | 0.0473 | 0.0627 | 0.0595 | 0.0636 | 0.0604 | 0.0591 | 0.0649 | 0.0777 | 0.0615 | 0.0602 | 0.0623 | 0.0646 | 0.0652 | 0.0515 |  |  |  | 
G150W | 0.0571 | 0.0689 | 0.0629 | 0.0322 | 0.0577 | 0.0829 | 0.0531 | 0.0604 |  | 0.0569 | 0.0551 | 0.0531 | 0.0529 |  | 0.0228 | 0.0651 | 0.059 | 0.0584 | 
K142G | 0.0707 | 0.0757 | 0.0642 | 0.059 | 0.0779 | 0.0645 |  | 0.0467 |  | 0.065 | 0.067 | 0.0679 | 0.0681 |  |  | 0.0709 | 0.0705 | 0.062 | 
K148A | 0.0661 |  | 0.107 | 0.0545 | 0.0899 | 0.0726 | 0.0983 | 0.0689 |  | 0.0785 | 0.0666 | 0.0641 | 0.0463 | 0.0839 |  | 0.08 | 0.0467 | 0.0324 | 0.059
F140R | 0.0652 | 0.0527 | 0.0688 | 0.0715 | 0.0666 | 0.0411 | 0.0619 | 0.0682 | 0.0629 | 0.0667 |  | 0.0629 | 0.0551 | 0.0618 |  | 0.057 | 0.0598 | 0.0687 | 
C152K | 0.0512 |  | 0.0726 | 0.0655 |  | 0.0634 | 0.068 | 0.0762 |  | 0.0617 |  |  | 0.0435 |  |  |  |  |  | 0.0661
C152D | 0.0793 | 0.0647 | 0.0642 | 0.073 |  | 0.0612 | 0.0677 |  |  |  |  | 0.0525 |  |  |  | 0.0663 |  | 0.0641 | 
C152I | 0.0616 | 0.0516 | 0.0662 | 0.0658 | 0.0519 | 0.0582 | 0.0756 | 0.0596 |  | 0.0625 | 0.0679 | 0.0631 | 0.0577 |  | 0.0589 | 0.0602 | 0.0566 | 0.0654 | 
C152L | 0.0516 | 0.0561 | 0.0611 | 0.083 | 0.0579 | 0.0617 | 0.0711 | 0.0557 | 0.0611 | 0.0609 |  | 0.0609 | 0.0525 | 0.0792 | 0.0689 | 0.0566 | 0.0566 | 0.0601 | 0.0567
C152E | 0.0598 | 0.0566 | 0.0685 | 0.0781 | 0.0632 | 0.0558 | 0.0611 | 0.0611 | 0.0565 | 0.0613 | 0.0632 | 0.0647 | 0.0504 |  | 0.0492 | 0.0383 | 0.0655 | 0.0651 | 
C152M | 0.0647 |  | 0.0625 |  | 0.0751 | 0.054 |  | 0.0701 |  |  | 0.0918 |  | 0.0468 |  |  | 0.066 |  |  | 
C152F | 0.0573 | 0.0279 | 0.062 | 0.0751 | 0.0676 | 0.0704 | 0.0603 | 0.069 |  | 0.0755 | 0.0461 |  | 0.0584 | 0.057 | 0.0615 | 0.061 |  | 0.0652 | 0.0507
C152G | 0.0547 |  | 0.0699 | 0.0523 | 0.0916 | 0.0641 | 0.0679 | 0.0694 | 0.0605 | 0.0617 | 0.0605 | 0.0793 |  | 0.0573 |  | 0.0514 |  | 0.0359 | 0.058
G136T | 0.0681 | 0.0615 | 0.0463 | 0.0566 | 0.0706 | 0.0633 | 0.0681 | 0.0622 | 0.071 | 0.064 | 0.0703 | 0.0683 | 0.0607 |  | 0.0753 | 0.0755 | 0.0706 | 0.0437 | 0.0677
G136W | 0.0597 | 0.0738 | 0.0628 | 0.0603 | 0.0823 |  | 0.0805 |  |  | 0.0609 |  |  | 0.0847 |  | 0.115 | 0.0647 | 0.0677 | 0.0548 | 0.0626
G136R | 0.0676 | 0.0696 | 0.0644 | 0.0688 | 0.0837 | 0.0422 | 0.0666 |  |  | 0.058 | 0.0681 | 0.0711 | 0.0676 |  | 0.0499 |  | 0.0587 | 0.0492 | 
G136H | 0.068 | 0.0645 | 0.0638 | 0.0843 | 0.0668 | 0.0726 | 0.0668 |  |  | 0.0724 | 0.0777 |  | 0.0481 |  | 0.0827 | 0.0987 | 0.0576 | 0.061 | 
G136L | 0.0691 | 0.0694 | 0.0653 | 0.0456 | 0.0812 | 0.0673 | 0.0723 | 0.0565 |  | 0.0557 | 0.0572 | 0.076 | 0.0632 |  | 0.0936 | 0.0988 | 0.0764 | 0.0586 | 
W144P | 0.0795 |  | 0.0635 | 0.0738 | 0.0907 | 0.0839 | 0.0694 | 0.053 |  | 0.0613 | 0.0663 |  | 0.0723 |  |  | 0.0754 |  | 0.0633 | 0.0616
W144S | 0.0533 | 0.0707 | 0.0616 | 0.0637 | 0.0869 | 0.0572 | 0.0636 |  |  | 0.0658 | 0.0624 | 0.0838 | 0.0656 | 0.0415 | 0.0789 | 0.0759 | 0.0573 | 0.0628 | 0.0714
W144C | 0.0556 | 0.074 | 0.0735 | 0.069 | 0.0681 | 0.0744 | 0.0675 | 0.0855 |  | 0.0625 | 0.0534 | 0.0906 | 0.0814 | 0.0903 |  | 0.133 | 0.0757 | 0.063 | 0.0619
W144H | 0.0636 | 0.066 | 0.0624 | 0.0498 | 0.0579 | 0.0712 | 0.0778 |  | 0.0612 | 0.0634 | 0.0509 | 0.0669 | 0.0843 |  |  | 0.0674 | 0.0692 | 0.0663 | 
W144V | 0.0621 | 0.0792 | 0.0663 | 0.0779 | 0.0737 | 0.0688 | 0.075 |  |  | 0.0468 | 0.0604 | 0.0666 | 0.0717 |  |  | 0.0729 | 0.0637 | 0.058 | 
W144M | 0.0834 | 0.0716 |  | 0.0626 | 0.0721 | 0.0676 | 0.0751 |  |  | 0.0727 | 0.0615 | 0.0668 | 0.0597 |  |  | 0.067 | 0.0691 |  | 

— the supplement of paper PMC12217912
